Source: the supplement of paper PMC10126150
Values marked as one replicate rest on one cluster of the flow cell; about a third of the high ones do not repeat.

system: ATP; test: switch fluorescence ratio, 500 uM ATP over buffer (Cy3 cluster intensity, sum of 5 cycles each) (fold (ratio)); higher = stronger signal-on switching upon ATP binding; sequences stand for … in TCGTCGGCAGCGTCAGATGTGTATAAGAGACAGTTTTTTTTTTTTTTTTTTTTTTTTT…TC; details: aptamer strand: ATP DNA aptamer (quencher-CACCTGGGGGAGTATTGCGGAGGAAGG + anchor), 100 nM annealed; ATP concentration: 500 uM; one replicate
Outline: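 Cy3-labelled switching-strand clusters on a modified Illumina MiSeq flow-cell were annealed to 100 nM quencher-labelled ATP aptamer, imaged in selection buffer, then imaged after 15 min with 500 uM ATP at 22 °C. Five buffer/ATP cycles ran, with NaOH stripping and re-annealing between them. The fluorescence ratio is summed target-cycle over summed buffer-cycle Cy3 intensity per cluster, averaged per switch-domain sequence. Clusters outside 100-1000 RFU were excluded.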
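Note: ATP exposure 15 min at 22 °C before imaging.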

Sequence | switch fluorescence ratio
AAGGCAGCCG | 1.07
AAACATCGA | 1.06
CTGGGCAGTC | 1.32
TAACGGCCTG | 1.75
CGCGTCCCAA | 1.22
TCTCGCTTAG | 3.4
TGGTTTTAC | 1.05
GGTCATGAAA | 0.997
TGCATGTGTG | 1.01
CTTGGGCTGT | 1
ACGAGAAGCT | 1.02
ATGCGACATG | 0.995
AACCGGGATA | 1.36
TGGATTCTTG | 1.08
TTATCGGGTC | 1.06
ACGAACATAG | 1.27
AGGGAGAGCT | 1.05
CGTTTTTTCC | 0.995
TCGGGTGAAT | 1
AAGATCCCCG | 0.988
GATTTTGCTG | 0.977
AACCTTTTGA | 1.2
TTCGGCTTG | 0.996

Sequence | switch fluorescence ratio
TTGGACCTTT | 1.18
CTTTTAGTAC | 0.989
CAAGCCGATT | 1.02
ATGTTTACG | 1.03
AGGTATAAG | 1
TGGTTACTAG | 0.988
ACTGGCCTGT | 1.01
TTCTGCCTGC | 1.03
TACCGCCAGC | 1.43
GTCGGCGGGA | 1.03
TTTGGCAACT | 1.05
ATGGGTCTTC | 1.02
ACTCGCCGG | 1.11
TTATCGGCCC | 1.02
AATTCTCAGA | 0.976
GCACCCTAGA | 0.999
GACTGAGACT | 1.01
GCATGCGGGG | 0.992
GGGACAGT | 1.01
TGTAGGCGTT | 1.01
CTTAGCCTCG | 1.01
TACGAACGGC | 1.65
CCGGAGAAGT | 3.6

Sequence | switch fluorescence ratio
CATGGTGACA | 0.98
TGTAAGTGTT | 0.95
ACGAATCGGT | 0.989
ATGTACAAAA | 1.11
TGGGGCGAG | 0.939
GCGCGCATCC | 0.98
ATGGGAGAGG | 1.02
CCCCCAGCCG | 1.1
CACTTCTTTC | 0.986
CGTTACTGTA | 1.25
AGACCTCGCT | 1.06
TAGCTCTGGG | 0.99
GTGTCGATG | 0.999
CTATGGAGGG | 0.992
CGGGGCTCGC | 1.02
GCGGGTTGCG | 0.998
TCGGACGTA | 1.08
CTATTTATGT | 0.998
TCGCGTAAAT | 0.973
GATCTCATCC | 1.01
TTTTGGACGA | 1.02
GCCTGAATTT | 0.953
TGCTCGGGGC | 0.972

Sequence | switch fluorescence ratio
GGCCATGGTT | 0.965
TTTCGCTGGG | 1.15
TACCCCATCT | 1.06
ATACTGATGT | 0.956
CGTCTAGCCA | 1.01
TATTAGTCCA | 1
GCCAGCGCCA | 1.07
CGGCCCACAA | 1.3
TTGCTGGTTT | 1.02
ATGTAAAG | 0.965
ACGCGGCTAA | 1.04
CTGCTCCGGG | 1.5
TTTGCCGCG | 1.03
CGGCCGACGT | 0.997
GGGTAGAGGC | 1.04
GCTATTCGTT | 0.943
GAGCGGGCAA | 1.1
GCAATTGTAG | 1.01
GGTCAAGAAG | 0.955
TTGCGAGGGA | 0.989
GATGCAGTG | 1.02
AGGGGCAGAA | 0.995
ACGAAAATTG | 1.29

Sequence | switch fluorescence ratio
GTCTAGACCA | 1.01
CATGTTTGAC | 1.02
CCATTGTGGC | 1.01
GATGTGATGG | 0.969
GCGAATTCTC | 1.09
AGCATTATGT | 1.01
GGCGATAGGC | 1.01
GAAGGCCACG | 1
GTGTGAAACT | 1.05
TTTCTCTTTG | 0.976
GGTAACGTC | 1.01
AAGCCCGACT | 1.02
GTCTGCGCAA | 2.94
TAACGGGGTG | 1.03
CTGGTAGCCT | 1.04
TTCCGAATGC | 2.81
TCTCGGCAAG | 3.33
CCAGACTTGC | 0.951
TTTCGAGCAG | 0.975
ACCCCATAGT | 1.09
AGGCCTGAGT | 1.04
GTGAGCTGTT | 1.02
ACCACTATTA | 1.02

Sequence | switch fluorescence ratio
CAATATACC | 1.06
TTGAGACTTG | 1.02
GTGTGCGATC | 1.01
TAGGGCGTCA | 1.02
AGTGTCTTAA | 1.03
CAAAGAGTTG | 1.02
CTGTCGGGGG | 0.995
GATCGTGAAG | 1
CATTGCGCGG | 0.97
ATGTATATAT | 0.994
TGGCTAAATT | 1.01
GTGCCTTAGT | 0.997
CCATAAGACA | 1.01
ACCAATAGGT | 1.03
AACATCATAG | 1.05
GTTGTTCGTG | 0.974
CCCAGCGTTT | 1.09
AACTTTCATT | 1.04
AATTTATTCT | 1.01
TGAGGAGATG | 0.96
GCGTTAAGTG | 1.03
TGGTTTCAAT | 1.05
TTTAGGTGAC | 0.985

Sequence | switch fluorescence ratio
ATTGGTCATG | 0.972
CCTTTTTGTA | 0.997
TAGAAGACCT | 1.08
AGGGGGTAG | 0.991
AAGCCTGGA | 1.06
CACTGCTACT | 1.16
AAAGTTGACA | 1.05
TTCTATCTTG | 0.962
GCTGGTCGCG | 0.948
AAGTAGGTCA | 1.28
TAAATCGTTC | 1.05
ACATGGTTCC | 1.02
GATGTAGTTA | 0.983
GGACGTCGGC | 0.98
AGTAGCTTAC | 1.97
ATTGTAACGC | 1
TTGCGTGC | 1.02
AACGCGTATC | 1.04
TCGGGAATCC | 1.02
